Data taken from the supplement of paper PMC3334620.
Whole data set: some 33,000 sequences, median “E-score (-0.5 to 0.5)” near -0.041, cut for the highest 2% near 0.37. The list shows a part of the results.

Each sequence was assayed against T1, Ecm22 (UniProt Q05958) (assay: PBM E-score (8-mer binding enrichment) (E-score (-0.5 to 0.5)); higher = stronger / more preferred TF binding; most listed sequences are background and not binding sites). Conditions: protein concentration: 200 nM; construct: GST-full length.
T1 sequence: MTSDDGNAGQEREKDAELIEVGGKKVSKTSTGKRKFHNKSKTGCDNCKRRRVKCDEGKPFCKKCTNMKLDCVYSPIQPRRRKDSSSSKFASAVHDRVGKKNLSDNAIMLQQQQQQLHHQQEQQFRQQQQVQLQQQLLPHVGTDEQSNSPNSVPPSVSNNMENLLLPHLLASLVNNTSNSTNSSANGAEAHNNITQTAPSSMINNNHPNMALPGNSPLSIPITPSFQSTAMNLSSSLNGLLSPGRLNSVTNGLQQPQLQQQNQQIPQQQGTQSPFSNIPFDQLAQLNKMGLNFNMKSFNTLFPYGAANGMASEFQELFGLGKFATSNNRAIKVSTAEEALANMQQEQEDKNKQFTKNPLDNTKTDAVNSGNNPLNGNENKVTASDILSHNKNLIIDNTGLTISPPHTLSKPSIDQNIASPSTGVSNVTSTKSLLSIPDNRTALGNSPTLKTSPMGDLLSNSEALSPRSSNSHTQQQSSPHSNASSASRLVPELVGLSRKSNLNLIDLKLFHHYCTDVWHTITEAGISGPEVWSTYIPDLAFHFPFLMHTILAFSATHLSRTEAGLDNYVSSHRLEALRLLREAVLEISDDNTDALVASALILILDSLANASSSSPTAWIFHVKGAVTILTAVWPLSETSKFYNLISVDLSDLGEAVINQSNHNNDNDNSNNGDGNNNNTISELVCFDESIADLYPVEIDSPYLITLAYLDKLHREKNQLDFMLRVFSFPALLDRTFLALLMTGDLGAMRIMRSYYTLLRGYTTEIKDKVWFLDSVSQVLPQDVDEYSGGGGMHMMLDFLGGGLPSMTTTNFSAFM
Description: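 Universal 'all 10-mer' protein binding microarrays (Agilent AMADID 015681) probed with GST-tagged S. cerevisiae TFs (full-length or DBD) made by in vitro transcription/translation (PURExpress), about 100-200 nM. Bound TF was detected with fluorescent anti-GST. Each ungapped 8-mer (which stands for itself and its reverse complement) is scored by the PBM enrichment score (E-score), a modified Wilcoxon-Mann-Whitney statistic from -0.5 to +0.5, computed with the Universal PBM Analysis Suite. Scale: above 0.35 generally sequence-specific binding.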

Sequence	PBM E-score
GAGACCAC	-0.0569
AGTTTGTA	-0.0485
CGATTACG	0.222
CGTATTCA	0.297
ATATCGAC	0.0252
AGGTTGAT	-0.144
ATACCAGC	-0.226
GACCTACC	0.0336
ATTTGAAG	-0.0985
GAGGTCCC	-0.11
TACTAGTA	-0.0318
AATTATCG	0.137
TGCGCACA	-0.0564
ATATTACC	-0.0733
GAGTTCGA	0.161
AATCGGGG	-0.161
CGCGGGGC	-0.15
GCTAGCAA	-0.0688
AGAAGAAA	0.0696
AATATAGC	-0.0398
ACTAGAGC	-0.15
CAGCCGCC	-0.103
GCTCTCGA	-0.189
ACATAGGA	-0.0572
AGTACGAG	0.456

Sequence	PBM E-score
CGACTTAG	0.21
AACGGCGT	0.242
GCTAACTA	0.0361
GCCCCTTA	-0.199
ACTCTTCG	0.173
GCCCTAAA	-0.212
GAGTTTAC	0.108
ACTCCAGT	-0.144
CTACTGTC	-0.113
ACCAAACG	0.348
ACTAACAT	0.0647
CTACACTC	-0.0285
TGCTACCA	-0.128
ACCTCTTG	-0.201
TAGCACGA	0.0752
AACCCGAA	0.188
AATCGAAG	0.0902
ATGGCTGA	-0.154
CGCCGGAC	-0.11
CACTCCGG	0.0206
CAATCCTG	-0.168
ATTTGCGG	0.0753
CCGATGCC	-0.115
TAGCGAGA	0.235
AACCCTCT	-0.256

Sequence	PBM E-score
AGCCTAGC	-0.209
CCGCGTCA	-0.051
AGACCCGA	0.175
GACTATCC	-0.0271
ATTAGTAG	-0.169
ACACCTCT	-0.16
CAGAGACA	-0.303
CTCCCATC	-0.124
GCCACGGA	-0.232
AACAACTT	-0.092
CGGCCTCA	0.0418
ACAACTTC	0.0243
ACACTTTG	-0.0412
GAATTAGA	-0.0857
GCTGCAAA	0.0183
AGCTCGTC	0.0121
TTATGAAA	-0.0342
CCGCAAAA	0.108
ATTAGACC	-0.0997
GTGGGAAA	-0.0405
CAACGACC	0.278
CCGATTCA	-0.0589
CGGGCCCA	-0.313
AGGACCCC	-0.202
CCGGGTAC	0.291

Sequence	PBM E-score
CTCACCCA	-0.134
AAATTCAT	-0.129
ATCGTCCG	0.103
CACCCGTA	0.239
ACTTCATG	-0.077
AGAGGAGC	0.00865
CCGCGAAC	0.109
AACAGTTA	-0.1
AATCCATG	-0.235
ACGCGCCG	0.0979
AGGGCACT	-0.202
GAGGGAAA	-0.0267
GCTACGCC	-0.22
CTCCCATA	-0.186
ATCTCTTG	-0.156
ATTGCAGA	-0.151
CCGTAACC	0.15
ACAGCCAC	-0.221
CACCCTGG	-0.102
CCTCATGC	-0.156
ACTCTGAG	-0.117
CCCCTTTA	-0.173
CGGTCGTC	-0.0294
ACCATGGT	0.0115
CACGGGAA	-0.0917

Sequence	PBM E-score
ATACTCTC	0.091
CCCCCACC	-0.317
GAGAACCA	-0.098
CCCAGACG	-0.0164
AGGCTCAG	-0.211
CCTAGGTA	-0.142
GGCGGAAA	-0.0985
ATACCCCC	-0.192
CGGGAAAC	0.251
CGAGCAGC	0.163
GAGGATCA	-0.132
GTGGTTGA	-0.189
TGCGGCCA	-0.131
AATTTAGT	0.0213
AGATGGAA	0.0413
AAGGCGTA	0.024
CGGTTCGC	0.151
CCAAATGG	-0.134
ATAGGCTG	-0.0836
ACTATGTC	-0.0189
AGCCTTGC	0.0339
AGTCAGGG	-0.37
ACGTAGGG	-0.161
GCTTCGAC	-0.151
GAAACTTA	-0.0558

Sequence	PBM E-score
CGTAGAAA	0.249
AGATTCAT	-0.191
AGGAAGCA	-0.105
AGTTTTTA	0.0856
CAGTCGCC	-0.21
TGAACCCA	-0.0944
CCTGAGGA	-0.0862
CAAGTGGA	-0.263
AAACTTTA	-0.0596
CGTACTAC	0.382
AATCTGGT	-0.0595
CACAACAA	0.015
AGCCGGAT	-0.0402
GCTCAGCA	0.0792
TAGTCCGA	0.123
GACCAAAC	0.026
AAGTATTA	-0.183
ACACCCGC	-0.134
AATAGGTG	-0.111
ACCCCTAC	-0.285
CTTGGACA	-0.0203
AAAAACAT	-0.0306
AGCCCTAT	-0.153
CTTACACC	-0.0282
AGTCCGCC	-0.00998

Sequence	PBM E-score
CACGTACA	0.216
ATAGTAAG	-0.0804
CAGCTTCG	0.0898
GCGAGTTA	0.191
GACTTCGA	-0.0883
CGCAACCG	0.157
GATTTAGA	-0.00744
AAGCGTAC	0.216
ATAGGATG	0.0535
AATCTATA	0.137
AGCGAGGC	0.313
CGGGGTGA	0.00026
TGAGGCCA	-0.0734
CCTTTTTA	0.109
CGAGGTTA	-0.0559
ACTGTGCA	0.0102
CATTGGAC	-0.122
AGCCTACG	0.0461
CGTAAATC	0.349
TCGGTGAA	0.0872
AAGCTTAC	0.029
TAACATGA	-0.0706
